Measurements from PubChem BioAssay AID1030 (National Center for Advancing Translational Sciences (NCATS), 2008).
In all, about 220,000 compounds went through this assay and about 16,000 (7.3%) were called active. The shares of active, inactive and inconclusive entries below differ from those in the screen. The call rests on the fitted dose curve; in most records, active means well fitted inhibition curve with a large enough effect (not every such curve was filed as active); inconclusive means small, poorly fitted or top-dose-only effect, or another doubt; inactive means no such curve, though single readings can be large or run the other way. No potency is given beside an inconclusive call; the fits are too rough.

Target: Aldehyde dehydrogenase 1A1 (Homo sapiens) (UniProt P00352)
Chain of UniProt P00352 (P00352 whole entry, looked up): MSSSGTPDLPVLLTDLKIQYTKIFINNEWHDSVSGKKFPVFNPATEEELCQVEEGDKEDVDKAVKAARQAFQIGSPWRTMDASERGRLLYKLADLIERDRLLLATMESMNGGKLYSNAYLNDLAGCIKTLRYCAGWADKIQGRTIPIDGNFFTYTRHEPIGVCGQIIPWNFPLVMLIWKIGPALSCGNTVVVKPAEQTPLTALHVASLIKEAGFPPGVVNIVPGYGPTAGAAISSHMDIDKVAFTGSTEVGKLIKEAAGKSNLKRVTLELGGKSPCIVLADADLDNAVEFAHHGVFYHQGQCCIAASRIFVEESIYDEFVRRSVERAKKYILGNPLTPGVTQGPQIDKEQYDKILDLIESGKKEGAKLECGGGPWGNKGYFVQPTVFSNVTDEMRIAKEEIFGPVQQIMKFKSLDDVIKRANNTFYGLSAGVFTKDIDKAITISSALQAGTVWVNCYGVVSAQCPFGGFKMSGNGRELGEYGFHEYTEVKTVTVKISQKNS
Test: qHTS Assay for Inhibitors of Aldehyde Dehydrogenase 1 (ALDH1A1)
Details: Purified ALDH1A1, NADH fluorescence, propionaldehyde substrate; series mostly up to 75.3 µM
Potency means the concentration at half of the fitted maximal effect; tags describe the fitted curve by direction and shape.

Row | Structure (SMILES) | Potency
1 | CCN(CC)S(=O)(=O)c1ccc(C(=O)Oc2cc(C)[nH]c(=O)c2[N+](=O)[O-])cc1 | inactive
2 | COc1ccc(CCNc2oc(-c3ccc(OC)c(OC)c3)nc2C#N)cc1 | inconclusive [inhibitor, partial curve]
3 | Cc1ccc2nc(NC(=O)c3ccccn3)sc2c1 | inactive
4 | Cc1ccccc1NC(=O)C1c2cccc[n+]2CC(=O)N1c1c(C)cccc1C (centres undefined) | active: 11.2 µM
5 | O=[N+]([O-])c1ccc(NCCNS(=O)(=O)c2ccccc2)c(C(F)(F)F)c1 | inconclusive [inhibitor, full curve, poor fit]
6 | CC1=CC(C)(C)Nc2ccc(OC(=O)C(Cc3ccccc3)N3C(=O)c4ccccc4C3=O)cc21 (centres undefined) | inactive
7 | COc1ccc2c(c1)C(=O)N(c1ccccc1C)C(=O)C2(C)C | inconclusive [inhibitor, single point]
8 | S=C(Nc1ccc2c(c1)OCO2)N1CCN(Cc2ccco2)CC1 | inactive
9 | CCCCN(C)C(=S)Nc1ccsc1C(=O)OC | inconclusive [inhibitor, single point]
10 | COc1cccc(C(=O)N2c3ccccc3Sc3ccccc32)c1 | inactive
11 | N#CC(c1nc2ccccc2nc1N1CCCC1)S(=O)(=O)c1ccccc1 (centres undefined) | inconclusive [inhibitor, partial curve]
12 | COC(=O)c1cccc(NC(=O)CCCOc2ccccc2)c1 | inconclusive [inhibitor, single point]
13 | CC(C)C[C@@H](CC(=O)N[C@@H](CCC(=O)O)CC(=O)O)NC(=O)[C@@H]1CCCC[C@H]1NC(=O)C[C@H](CCCN)NC(=O)C[C@H](CO)NC(=O)[C@@H]1CNCC[C@H]1N | inactive
14 | O=C(CC12CC3CC(CC(C3)C1)C2)NCC(=O)OCc1cc(=O)oc2ccc3ccccc3c12 | inconclusive [inhibitor, partial curve]
15 | Cc1ccc(C(=O)CSc2nccn2-c2ccccc2)cc1 | inconclusive [inhibitor, single point]
16 | CCc1ccccc1-n1c(-c2ccncc2)n[nH]c1=S | inconclusive [inhibitor, partial curve, poor fit]
17 | O=C(Cn1cc(SCc2cccc(Cl)c2)c2ccccc21)N1CCOCC1 | active: 7.51 µM
18 | CCC(c1nnnn1C1CCCC1)N1CCC(C(N)=O)CC1 (centres undefined) | inconclusive [inhibitor, single point]
19 | CCCC1NC(=S)N(C2CCCCC2)C1=O (centres undefined) | inactive
20 | N#Cc1c(N)oc(-c2ccccc2)c1-c1ccccc1 | inconclusive [inhibitor, single point]
21 | CCC(=O)NC1=C(Cl)C(=O)C(NC(=O)CC)=C(Cl)C1=O | inconclusive [inhibitor, single point]
22 | COc1ccc(/C=C2/NC(=O)N(Cc3ccccc3F)C2=O)cc1OC | inconclusive [inhibitor, full curve]

Row | Structure (SMILES) | Potency
23 | Cc1ccc(C(=O)CC2(O)C(=O)N(CCc3ccccc3)c3ccc(Br)cc32)o1 (centres undefined) | inconclusive [inhibitor, partial curve]
24 | Cc1cc(N2CCOCC2)n2cc(-c3ccccc3)nc2n1 | inconclusive [inhibitor, partial curve]
25 | COc1ccc(C(=O)Nc2nc3ccc(S(C)(=O)=O)cc3s2)cc1 | inconclusive [inhibitor, single point]
26 | COc1ccc(-n2c(C)cc(/C=N/Nc3nc(N4CCOCC4)nc(N4CCOCC4)n3)c2C)cc1 | inconclusive [inhibitor, single point]
27 | CN(C)S(=O)(=O)c1cccc(NC(=O)CNCC2CCCCC2)c1 | inconclusive [inhibitor, partial curve]
28 | O=C(CSCc1ccc(Cl)cc1)N/N=C/c1ccc(OCC(=O)Nc2ccccc2)cc1 | inconclusive [inhibitor, full curve]
29 | Cn1c(=O)c2ncn(CC(=O)Nc3ccc(N4CCOCC4)cc3)c2n(C)c1=O | inactive
30 | O=C(CSc1ncnc2c1sc1ccccc12)Nc1ccc(Br)cc1 | inactive
31 | CCN=C(NCC)SC1CC(=O)N(c2ccc(OC)cc2)C1=O (centres undefined) | inconclusive [inhibitor, single point]
32 | Cc1ccc([N+](=O)[O-])c(OCCN2CCC(Cc3ccccc3)CC2)c1 | active: 31.6 µM
33 | C/C(=N\NC(=O)c1cc(-c2cccc([N+](=O)[O-])c2)n[nH]1)c1ccccc1O | inactive
34 | COc1ccc(-c2cc(C(=O)OC(C)C(=O)Nc3c(C)n(C)n(-c4ccccc4)c3=O)c3ccccc3n2)cc1 (centres undefined) | inconclusive [inhibitor, single point]
35 | N#Cc1cc2c(nc1SCc1ccccc1)CCC2 | inconclusive [inhibitor, single point]
36 | O=C(NCC(O)COc1ccc([N+](=O)[O-])cc1)Nc1ccccc1 (centres undefined) | active: 20 µM
37 | COCCn1c(=O)c(-c2cc(F)cc(F)c2)nc2cnc(N3CCOCC3)nc21 | inconclusive [inhibitor, single point]
38 | CC1Cc2ccccc2N1C(=O)c1ccc(N2CCCC2)c([N+](=O)[O-])c1 (centres undefined) | active: 12.6 µM
39 | COC(=O)c1cc(=O)n(-c2ccccc2)c(=Nc2ccccc2)s1 | inconclusive [inhibitor, single point]
40 | COC(=O)c1ccc(C(NC(=O)OCc2ccccc2)/C(C)=C/[C@@H](C)C(=O)N[C@@H](CO)Cc2ccccc2)cc1 (some centres undefined) | inconclusive [inhibitor, single point]
41 | COCCNC(=S)Nc1ccccc1[N+](=O)[O-] | inactive
42 | COc1ccc2oc(-c3ccc(NC(=O)c4ccc(N5CCOCC5)c([N+](=O)[O-])c4)cc3)nc2c1 | inactive
43 | COc1cc([N+](=O)[O-])c(OC)cc1SCc1n[nH]c(=S)n1-c1ccc(F)cc1 | active: 2.24 µM
44 | CSc1nc(S(=O)(=O)c2ccccc2)c(Cl)s1 | inconclusive [inhibitor, single point]
